{"source": "patent US20250270341A1", "about": "(Alector, published 2025)", "binders": {"B1": {"name": "CD98hc.03.004 (2+1 bispecific antibody) (bispecific antibody)", "heavy 1": "EVRLLESGGGLVQPGGSLRLSCAASGFTFSNYAMGWVRQAPGKGLEWVSAISGSGGSTYYADSVKGRFTTSRDDSKNALYLQMNSLRAEDTAVYYCARGGPGWYAADVWGQGTTVTVSSASTKGPSVFPLAPSSKSTSGGTAALGCLVKDYFPEPVTVSWNSGALTSGVHTFPAVLQSSGLYSLSSVVTVPSSSLGTQTYICNVNHKPSNTKVDKKV[here human IgG1 Fc with changes without letters]GGGGSGGGGSGGGGSDVQLQESGPGLVKPSQSLSLTCTVTGYSITNNYAWNWIRRFPGNKLEWMAYISYSGYTSYNPSLKSRISITRDTSKNQFFLQLNSVTTEDTATYYCTGYFYYYGGGSFDYWGQGTTLTVSSGGSEGKSSGSGSESKSTGGSQAVVTQESALTTSPGETVTLTCRSSTGAVTTSNFANWVQEKPDHLFTGLIRGSNNRAPGVPARFSGSLIGDKAALTITGARTEDEAIYFCALWYSDHWVFGGGTKLTVL", "heavy 2": "EVRLLESGGGLVQPGGSLRLSCAASGFTFSNYAMGWVRQAPGKGLEWVSAISGSGGSTYYADSVKGRFTTSRDDSKNALYLQMNSLRAEDTAVYYCARGGPGWYAADVWGQGTTVTVSS[here human IgG1 constant region with changes without letters]", "light": "DIQMTQSPSSLSASVGDRVTITCRASQSISSYLNWYQQKPGKAPKLLIYAASSLQSGVPSRFSGSGSGTDFTLTISSLQPEDFATYYCQQADLPAFAFGGGTKVEIKRTVAAPSVFIFPPSDEQLKSGTASVVCLLNNFYPREAKVQWKVDNALQSGNSQESVTEQDSKDSTYSLSSTLTLSKADYEKHKVYACEVTHQGLSSPVTKSFNRGEC"}, "B2": {"name": "CD98hc.04.062 (2+1 bispecific antibody) (bispecific antibody)", "heavy 1": "EVRLLESGGGLVQPGGSLRLSCAASGFTFSNYAMGWVRQAPGKGLEWVSAISGSGGSTYYADSVKGRFTTSRDDSKNALYLQMNSLRAEDTAVYYCARGGPGWYAADVWGQGTTVTVSSASTKGPSVFPLAPSSKSTSGGTAALGCLVKDYFPEPVTVSWNSGALTSGVHTFPAVLQSSGLYSLSSVVTVPSSSLGTQTYICNVNHKPSNTKVDKKV[here human IgG1 Fc with changes without letters]GGGGSGGGGSGGGGSEVQLVESGGDLVKPGGSLKLSCTASRFAFSTYDMSWVRQTPEKRLEWVAYISSGGGSTYFPDTVKGRFTISRDNAKNTLYLQMSSLKSEDTAMYYCARQDGHYPWFPYWGQGTLVTVSAGGSEGKSSGSGSESKSTGGSDIVMSQSPSSLAVSVGEKVTMSCKSSQSLLYSGNQKTYLAWYQQKPGQSPKPLIYWASTRESGIPDRFTGSGSGTDFTLTISSVKAEDLAVYYCQQYYSYPPTFGAGTKLELK", "heavy 2": "EVRLLESGGGLVQPGGSLRLSCAASGFTFSNYAMGWVRQAPGKGLEWVSAISGSGGSTYYADSVKGRFTTSRDDSKNALYLQMNSLRAEDTAVYYCARGGPGWYAADVWGQGTTVTVSS[here human IgG1 constant region with changes without letters]", "light": "B1 light"}, "B3": {"name": "CD98hc.04.006 (2+1 bispecific antibody) (bispecific antibody)", "heavy 1": "EVRLLESGGGLVQPGGSLRLSCAASGFTFSNYAMGWVRQAPGKGLEWVSAISGSGGSTYYADSVKGRFTTSRDDSKNALYLQMNSLRAEDTAVYYCARGGPGWYAADVWGQGTTVTVSSASTKGPSVFPLAPSSKSTSGGTAALGCLVKDYFPEPVTVSWNSGALTSGVHTFPAVLQSSGLYSLSSVVTVPSSSLGTQTYICNVNHKPSNTKVDKKV[here human IgG1 Fc with changes without letters]GGGGSGGGGSGGGGSEVNLVESGGDLVQPGGSLRLSCATSGFTFTDYFMSWVRQPPGKALEWLGFIRNKAYGYTTEYSASVKGRFTISRDNSQSIFYLQMNTLRLEDSATYYCARGPFISTAPFAYWGQGTLVTVSAGGSEGKSSGSGSESKSTGGSDIVMSQSPSSLAVSVGETVTMSCKSSQSLLYSSNQKNYLAWYQQKPGQSPKLLIYWGSTRESGVPDRFTGSGSGTDFTLTISSVKAEDLAVYYCQHYYGYPWTFGGGTKLEIK", "heavy 2": "EVRLLESGGGLVQPGGSLRLSCAASGFTFSNYAMGWVRQAPGKGLEWVSAISGSGGSTYYADSVKGRFTTSRDDSKNALYLQMNSLRAEDTAVYYCARGGPGWYAADVWGQGTTVTVSS[here human IgG1 constant region with changes without letters]", "light": "B1 light"}, "B4": {"name": "CD98hc.04.058 (2+1 bispecific antibody) (bispecific antibody)", "heavy 1": "EVRLLESGGGLVQPGGSLRLSCAASGFTFSNYAMGWVRQAPGKGLEWVSAISGSGGSTYYADSVKGRFTTSRDDSKNALYLQMNSLRAEDTAVYYCARGGPGWYAADVWGQGTTVTVSSASTKGPSVFPLAPSSKSTSGGTAALGCLVKDYFPEPVTVSWNSGALTSGVHTFPAVLQSSGLYSLSSVVTVPSSSLGTQTYICNVNHKPSNTKVDKKV[here human IgG1 Fc with changes without letters]GGGGSGGGGSGGGGSQVQLQQSGAELVRPGVSVKISCKASGYTFTDHTMHWVKQSHARSLEWIGVISTYFGDASYNPKFKGKATMTVDKSSNTAYMELARLTSEDSAIYYCARVGGRLRLGYYFDYWGQGTTLTVSSGGSEGKSSGSGSESKSTGGSNIMMTQSPSSLAVSAGEKVTMNCKSSQTVLYSSNQKNYLAWYQQKPGQSPKLLIYWASTRESGVPDRFTGSGSGTDFTLTISSVQVEDLAVYYCHQYLSSYTFGGGTKLEIK", "heavy 2": "EVRLLESGGGLVQPGGSLRLSCAASGFTFSNYAMGWVRQAPGKGLEWVSAISGSGGSTYYADSVKGRFTTSRDDSKNALYLQMNSLRAEDTAVYYCARGGPGWYAADVWGQGTTVTVSS[here human IgG1 constant region with changes without letters]", "light": "B1 light"}, "B5": {"name": "CD98hc.04.010 (2+1 bispecific antibody) (bispecific antibody)", "heavy 1": "EVRLLESGGGLVQPGGSLRLSCAASGFTFSNYAMGWVRQAPGKGLEWVSAISGSGGSTYYADSVKGRFTTSRDDSKNALYLQMNSLRAEDTAVYYCARGGPGWYAADVWGQGTTVTVSSASTKGPSVFPLAPSSKSTSGGTAALGCLVKDYFPEPVTVSWNSGALTSGVHTFPAVLQSSGLYSLSSVVTVPSSSLGTQTYICNVNHKPSNTKVDKKV[here human IgG1 Fc with changes without letters]GGGGSGGGGSGGGGSQVQLQQSGAELMKPGASVKISCKATGYTFSTYWIEWVKQRPGHGLEWIGEILPGSGTTTYNEKFKGKATFTADTSSNTAYMQLSSLTSEDSAVYYCARRTVYYRYEGIDYWGQGTTLTVSSGGSEGKSSGSGSESKSTGGSQIVLTQSPAIMSASPGEKVTITCSASSSVSYMFWFQQRPGTSPKLWIYTTSNLASGVPARFSGSGSGTSYSLTISRMEAEDAATYYCQQKNNYPFTFGSGTKLEIK", "heavy 2": "EVRLLESGGGLVQPGGSLRLSCAASGFTFSNYAMGWVRQAPGKGLEWVSAISGSGGSTYYADSVKGRFTTSRDDSKNALYLQMNSLRAEDTAVYYCARGGPGWYAADVWGQGTTVTVSS[here human IgG1 constant region with changes without letters]", "light": "B1 light"}}}
{"target": "T1, Full length human CD98hc on CHO cells (human)", "T1 construct": "CHO cells stably overexpressing it; also called CHO-human CD98hc; CHO-huCD98hc", "T1 chain": "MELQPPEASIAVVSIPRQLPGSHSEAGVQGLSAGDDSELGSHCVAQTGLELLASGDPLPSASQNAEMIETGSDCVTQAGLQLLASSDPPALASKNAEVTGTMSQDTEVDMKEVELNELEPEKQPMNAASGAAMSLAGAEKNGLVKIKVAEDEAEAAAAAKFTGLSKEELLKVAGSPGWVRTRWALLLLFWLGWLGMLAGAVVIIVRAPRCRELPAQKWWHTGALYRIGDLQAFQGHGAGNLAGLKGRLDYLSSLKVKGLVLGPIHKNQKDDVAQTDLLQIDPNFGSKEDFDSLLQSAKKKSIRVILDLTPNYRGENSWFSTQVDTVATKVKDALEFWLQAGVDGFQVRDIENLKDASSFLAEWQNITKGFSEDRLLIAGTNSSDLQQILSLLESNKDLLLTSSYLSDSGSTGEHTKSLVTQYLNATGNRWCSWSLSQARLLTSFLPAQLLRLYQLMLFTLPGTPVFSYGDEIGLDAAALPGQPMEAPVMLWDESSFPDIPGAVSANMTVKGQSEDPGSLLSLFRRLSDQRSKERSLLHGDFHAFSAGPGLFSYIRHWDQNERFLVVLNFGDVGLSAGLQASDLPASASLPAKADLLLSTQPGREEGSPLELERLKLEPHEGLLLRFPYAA", "assay": "FACS, 5 ug/ml"}
{"binder": "B1", "MFI fold-change relative to isotype hIgG1": 43.7}
{"binder": "B2", "MFI fold-change relative to isotype hIgG1": 40.3}
{"binder": "B3", "MFI fold-change relative to isotype hIgG1": 13}
{"binder": "B4", "MFI fold-change relative to isotype hIgG1": 11.8}
{"binder": "B5", "MFI fold-change relative to isotype hIgG1": 16}
{"target": "T2, Full length mouse CD98hc on CHO cells (mouse, UniProt P10852 1-526)", "T2 construct": "CHO cells stably overexpressing it; also called CHO-mouse CD98hc; CHO-mCD98hc", "T2 sequence": "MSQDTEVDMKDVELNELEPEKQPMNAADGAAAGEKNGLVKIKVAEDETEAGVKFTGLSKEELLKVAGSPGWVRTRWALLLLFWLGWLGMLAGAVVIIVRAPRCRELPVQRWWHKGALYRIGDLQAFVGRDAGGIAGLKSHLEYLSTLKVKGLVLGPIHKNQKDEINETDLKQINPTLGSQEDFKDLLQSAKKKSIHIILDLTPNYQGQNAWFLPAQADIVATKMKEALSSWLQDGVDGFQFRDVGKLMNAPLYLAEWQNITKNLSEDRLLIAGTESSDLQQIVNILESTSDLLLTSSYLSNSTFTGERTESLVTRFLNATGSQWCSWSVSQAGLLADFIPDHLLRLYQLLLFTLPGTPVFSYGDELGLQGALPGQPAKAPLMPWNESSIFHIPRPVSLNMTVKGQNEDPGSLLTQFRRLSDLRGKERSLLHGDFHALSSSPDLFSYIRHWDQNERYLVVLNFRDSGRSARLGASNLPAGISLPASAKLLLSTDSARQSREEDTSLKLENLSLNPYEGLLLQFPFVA", "assay": "FACS, 5 ug/ml"}
{"binder": "B1", "MFI fold-change relative to isotype hIgG1": 1}
{"binder": "B2", "MFI fold-change relative to isotype hIgG1": 1.6}
{"binder": "B3", "MFI fold-change relative to isotype hIgG1": 1.5}
{"binder": "B5", "MFI fold-change relative to isotype hIgG1": 0.6}
{"target": "T3, Human TfR-AVI-His (control) (human, UniProt P02786)", "T3 construct": "control protein; also called Avi-His-tagged human TfR; human transferrin receptor", "T3 sequence (P02786 89-760 limits assumed)": "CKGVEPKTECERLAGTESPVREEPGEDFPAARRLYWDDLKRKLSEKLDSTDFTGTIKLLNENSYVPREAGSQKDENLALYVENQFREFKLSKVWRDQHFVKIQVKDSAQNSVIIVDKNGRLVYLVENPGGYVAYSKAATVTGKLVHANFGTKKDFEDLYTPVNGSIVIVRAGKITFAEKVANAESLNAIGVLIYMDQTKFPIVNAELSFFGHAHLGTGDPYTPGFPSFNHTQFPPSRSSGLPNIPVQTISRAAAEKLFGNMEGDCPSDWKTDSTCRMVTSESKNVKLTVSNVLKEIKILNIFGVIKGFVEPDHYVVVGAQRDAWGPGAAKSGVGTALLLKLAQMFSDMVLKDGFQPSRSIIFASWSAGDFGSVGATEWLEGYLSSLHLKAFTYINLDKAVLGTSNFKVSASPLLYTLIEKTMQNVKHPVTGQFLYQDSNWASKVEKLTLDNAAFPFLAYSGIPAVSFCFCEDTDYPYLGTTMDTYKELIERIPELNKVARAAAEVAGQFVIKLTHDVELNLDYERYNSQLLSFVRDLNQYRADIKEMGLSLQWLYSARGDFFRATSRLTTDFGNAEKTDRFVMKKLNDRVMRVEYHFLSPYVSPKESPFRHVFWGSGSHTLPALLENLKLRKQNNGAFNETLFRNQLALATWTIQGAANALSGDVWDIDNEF", "assay": "ELISA, 1 ug/ml", "procedure": "(§1) To determine binding retention of reformatted 2+1 anti-CD98hc bispecific antibodies by ELISA, high binding ELISA plates (Thermo Fisher) were coated with streptavidin (1 μg/ml, Thermo Fisher) overnight at 4° C. Plates were then washed three times with phosphate buffered saline with 0.05% tween-20 (PBST) and incubated with block buffer (PBS+1% BSA, 1 h, room temperature). Plates were washed three times again with PBST and incubated with biotinylated human, cyno, and mouse CD98hc and an irrelevant antigen, human transferrin receptor (1 μg/ml, 1 h, room temperature). Plates were washed three times again with PBST and incubated with anti-CD98hc antibodies (1 μg/ml, 1 h, room temperature). Plates were washed three times again with PBST and incubated with a secondary detection antibody, anti-human horseradish peroxidase conjugated antibody (1:5000 dilution, 30 min, room temperature). Plates were washed three times one last time and incubated with TMB-ELISA Substrate Solution (Thermo Fisher) and then quenched with H₂SO₄. Anti-CD98hc binding was then analyzed by quantifying optical density at 450 nm (OD₄₅₀) using the SpectraMax M5 (Molecular Devices). The binding characteristics of the various 2+1 anti-CD98hc bispecific antibodies to CD98hc (human, cyno, mouse) and control human TfR are summarized below in Table 16, shown as fold-change relative to isotype hIgG."}
{"binder": "B1", "ELISA fold-change relative to isotype hIgG": 1.5}
{"target": "T4, muCD98hc ECD Avi-His (mouse, UniProt P10852 100-526)", "T4 construct": "biotinylated on the Avi tag where captured on streptavidin; also called Mouse CD98-AVI-His; Mouse CD98hc-AVI-His", "T4 sequence": "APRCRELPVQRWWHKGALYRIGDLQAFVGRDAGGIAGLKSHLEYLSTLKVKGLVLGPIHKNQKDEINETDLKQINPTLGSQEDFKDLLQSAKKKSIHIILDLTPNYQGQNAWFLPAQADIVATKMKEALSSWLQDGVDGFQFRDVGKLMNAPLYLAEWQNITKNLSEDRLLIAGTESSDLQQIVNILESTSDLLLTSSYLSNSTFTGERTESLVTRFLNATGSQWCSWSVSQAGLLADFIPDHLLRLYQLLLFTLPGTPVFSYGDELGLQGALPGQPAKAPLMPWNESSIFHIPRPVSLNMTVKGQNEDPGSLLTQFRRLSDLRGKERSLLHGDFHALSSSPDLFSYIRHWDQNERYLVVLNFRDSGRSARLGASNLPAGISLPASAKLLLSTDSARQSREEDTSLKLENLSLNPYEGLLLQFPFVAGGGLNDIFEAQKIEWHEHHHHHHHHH", "assay": "ELISA, 1 ug/ml", "procedure": "as §1"}
{"binder": "B2", "ELISA fold-change relative to isotype hIgG": 2.6}
{"binder": "B3", "ELISA fold-change relative to isotype hIgG": 2.3}
{"binder": "B4", "ELISA fold-change relative to isotype hIgG": 3.9}
{"binder": "B5", "ELISA fold-change relative to isotype hIgG": 1.2}
